Experimental data published in PubChem BioAssay AID602179 (National Center for Advancing Translational Sciences (NCATS), 2012).
In all, about 390,000 compounds went through this assay and about 360 (0.092%) were called active. Inconclusive results, whose numbers are uncertain, are shown with a selection of clear calls. The call rests on the fitted dose curve; in most records, active means well fitted inhibition curve with a large enough effect; inconclusive means small, poorly fitted or top-dose-only effect; inactive means no such curve, though single readings can be large or run the other way. Where the call is inconclusive, the potency comes from a doubtful curve fit.

target: Isocitrate dehydrogenase [NADP] cytoplasmic (Homo sapiens) (UniProt O75874); assay: qHTS for Inhibitors of mutant isocitrate dehydrogenase 1 (IDH1): qHTS; settings: IDH1-R132H enzyme, NADPH consumption, diaphorase/resazurin fluorescence; series mostly up to 76.6 µM; further: nearly all actives have a fitted effect of over 65% in size
Summary of the method: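 IDH1-R132H (0.5 ug/mL) preincubated 30 min with compound, then NADPH (0.016 mM) and alpha-KG (2 mM) added; 80 min at RT, pH 7.5. Remaining NADPH coupled via diaphorase/resazurin to fluorescence (540/590 nm); concentration-response curves normalized to no-enzyme control.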
Potency means the concentration at half of the fitted maximal effect; tags describe the fitted curve by direction and shape.

Row | Structure (SMILES) | Potency
1 | C=CCn1c(SCC(=O)N2CCc3ccccc3C2)nc2sc(C)cc2c1=O | inconclusive: 52.1 µM [inhibitor, single point]
2 | O=C(O)c1cccc(Nc2ccncc2[N+](=O)[O-])c1 | inactive
3 | COc1cc(C#Cc2c(-c3cncn3C)n(C)c3ccc(-c4cnc(OC)nc4)cc23)cc(OC)c1 | inconclusive: 44.7 µM [inhibitor, partial curve, poor fit]
4 | COc1ccc(-c2cc(-c3nnc(COC(=O)c4ccc(O)cc4)o3)c3ccccc3n2)cc1OC | inconclusive: 9.27 µM [inhibitor, partial curve]
5 | O=C(NC(Nc1nc2ccc([N+](=O)[O-])cc2s1)(C(F)(F)F)C(F)(F)F)c1cccnc1 | inconclusive: 46.5 µM [inhibitor, partial curve]
6 | CCOC(=O)c1cc2c(=O)n3ccccc3nc2n(CC(C)C)c1=NC(=O)C(C)(C)Oc1ccc(Cl)cc1 | inconclusive: 44.7 µM [inhibitor, partial curve]
7 | NC(=O)CC(NC(=O)Cc1cccc2ccccc12)c1ccc(NCc2cc(F)ccc2F)c([N+](=O)[O-])c1 (configuration not stated) | inconclusive: 44.7 µM [inhibitor, partial curve, poor fit]
8 | COc1cccc(CN(C)C(=O)c2cc(S(=O)(=O)N3CCCCCC3)ccc2OC)c1 | inconclusive: 52.1 µM [inhibitor, partial curve, poor fit]
9 | COc1cc2c(cc1OC)-c1cc(NCc3ccccn3)nc(=O)n1CC2 | inconclusive: 58.5 µM [inhibitor, single point]
10 | Cc1ccc(N2C(S)=C(C#N)C(=O)NC2c2cccs2)cc1 (configuration not stated) | active: 52.1 µM
11 | CCS(=O)(=O)C1=NSC2=NC(=O)/C(=C\c3ccc(OS(=O)(=O)c4ccccc4)c(OC)c3)C(=N)N21 | inconclusive: 52.1 µM [inhibitor, single point]
12 | CCc1ccc(S(=O)(=O)c2cn(C)c3cc(N4CCCCC4C)c(F)cc3c2=O)cc1 (configuration not stated) | inactive
13 | O=S(=O)(/N=C(/Nc1ccc(Cl)c(S(=O)(=O)Nc2ccccc2Cl)c1)c1ccc(F)cc1)c1ccccc1 | inconclusive: 18.5 µM [inhibitor, partial curve]
14 | COc1ccc(-c2cc3ccccc3[nH]2)cc1 | inconclusive: 58.5 µM [inhibitor, single point]
15 | COc1ccccc1C(=O)Nc1cc2c(cc1N1CCCCC1)n(C)c(=O)n2C | inconclusive: 44.7 µM [inhibitor, partial curve, poor fit]
16 | Cc1nc(SCC(=O)Nc2cccnc2Cl)nc(C)c1C | inconclusive: 28.2 µM [inhibitor, single point]
17 | COc1ccc2[nH]c3c(c2c1)CCN1C(=O)C(CC(=O)NCc2ccc(OC)c(OC)c2)C[C@H](C(=O)N2CCOCC2)[C@@]31CCC1CCCC1 (some centres not stated) | inconclusive: 44.7 µM [inhibitor, partial curve, poor fit]
18 | Cc1cccc2nc(-c3cccnc3)c(Nc3ccc(C(C)C)cc3)n12 | inconclusive: 50.1 µM [inhibitor, single point]
19 | CC(C)CC1C(=O)N(Cc2cn(CCC3OCCCO3)nn2)CCS(=O)(=O)N1Cc1ccc(-c2ccc(Cl)nc2)cc1 (configuration not stated) | inconclusive: 50.1 µM [inhibitor, single point]
20 | O=C(N/N=C/c1ccc(O)cc1)c1ccc(COc2cc(Cl)ccc2Cl)o1 | inactive
21 | CC(=O)c1ccc(NC(=O)Cn2c(=O)n(Cc3ccco3)c(=O)c3sc4ccccc4c32)cc1 | inactive

Row | Structure (SMILES) | Potency
22 | COc1ccc(C2C(C#N)=C(SCC(=O)Nc3ccc(C)cc3)NC3=C2C(=O)CC(C)(C)C3)cc1 (configuration not stated) | active: 13.1 µM
23 | CCOC(=O)C(NC(=O)c1ccccc1Cl)(Nc1ccc(C(F)(F)F)cc1)C(F)(F)F (configuration not stated) | inconclusive: 44.7 µM [inhibitor, partial curve, poor fit]
24 | CC(=O)N(C)c1ccc(N=Nc2c(C)[nH]n(C(N)=S)c2=O)cc1 | inconclusive: 58.5 µM [inhibitor, single point]
25 | CCCCCCCCNC(=O)/C(C#N)=C/c1ccccc1[N+](=O)[O-] | inconclusive: 58.5 µM [inhibitor, single point]
26 | CCCOc1ccc(C2C(C(=O)c3ccc(C)o3)=C(O)C(=O)N2Cc2ccco2)cc1 (configuration not stated) | inconclusive: 52.1 µM [inhibitor, single point]
27 | Cc1cccc(NC(=O)c2nc[nH]c2C(=O)NCCCCNC(=O)c2[nH]cnc2C(=O)Nc2cccc(C)c2)c1 | inconclusive: 50.1 µM [inhibitor, single point]
28 | C=CCSC1=N/C(=C\c2cc(OCC)c(OC(C)=O)c([N+](=O)[O-])c2)C(=O)S1 | inconclusive: 46.5 µM [inhibitor, partial curve]
29 | Oc1ccc(-c2nc3ccc(Cl)cn3c2Nc2ccc(Cl)cc2)cc1 | inconclusive: 50.1 µM [inhibitor, single point]
30 | CC1=NN(C(N)=S)C(=O)C1N=Nc1cccc(Cl)c1 (configuration not stated) | inconclusive: 58.5 µM [inhibitor, single point]
31 | N/C(=N\OC(=O)c1ccco1)c1ccccc1 | inactive
32 | Cc1cc(NS(=O)(=O)c2ccc(Nc3nc(-c4ccc(C)c(C)c4)cs3)cc2)no1 | inconclusive: 58.5 µM [inhibitor, single point]
33 | CSc1cccc(NC(=O)CSc2ncccc2C(=O)Oc2cccc([N+](=O)[O-])c2)c1 | inactive
34 | COc1ccc(S(=O)(=O)NCc2cccn2Cc2cc(C)ccc2C)cc1OC | inactive
35 | Nc1ccc(S(=O)(=O)Nc2nccs2)cc1N=Nc1ccccc1[N+](=O)[O-] | inconclusive: 58.5 µM [inhibitor, single point]
36 | CCOC(=O)c1ccc(-n2c(CCC(=O)O)ccc2-c2ccccc2)cc1O | inconclusive: 63.1 µM [inhibitor, single point]
37 | CCOc1ccc(NS(=O)(=O)c2c(C)nc3sc(CC)nn3c2=O)cc1 | inactive
38 | O=C(CCCC(=O)N(c1ccc2c(c1)OCCO2)C(C(=O)NC1CCCCC1)c1ccc(Cl)cc1)Nc1ccccn1 (configuration not stated) | inconclusive: 26.1 µM [inhibitor, single point]
39 | Cc1ccc(-c2nc(SCC(N)=O)c(C#N)c3c2CCCC3)cc1 | inconclusive: 52.1 µM [inhibitor, partial curve, poor fit]
40 | Cc1ccc(-n2c(=O)c3c(C)c(C(=O)N(C)C)sc3n(Cc3ccccc3C)c2=O)cc1C | inconclusive: 11.2 µM [inhibitor, full curve]
41 | N#CC1=C(S)N(c2ccccc2)C(c2ccc(-c3cccc(Cl)c3)o2)NC1=O (configuration not stated) | active: 41.4 µM
42 | COc1ccc(C(C)=O)cc1CSc1nc(Nc2ccc(F)c(F)c2)c2ccccc2n1 | inactive

Row | Structure (SMILES) | Potency
43 | Cc1cccn2c(=O)c(/C=C(\C#N)S(=O)(=O)c3ccccc3)c(N3CCC(C(N)=O)CC3)nc12 | inconclusive: 23.3 µM [inhibitor, full curve]
44 | COC(=O)Cc1ccc(NC(=S)Nc2ccccn2)cc1 | inactive
45 | Cc1cc(NS(=O)(=O)c2ccc(NC(=O)COc3cc(C)c(Br)cc3C(C)C)cc2)no1 | inconclusive: 50.1 µM [inhibitor, single point]
46 | COc1ccc(/C=C2\SC(=Nc3ccccc3OC)NC2=O)cc1 | inactive
47 | O=C(O)c1c2c(nc3ccccc13)/C(=C/c1c(F)cccc1F)CCC2 | inconclusive: 52.1 µM [inhibitor, single point]
48 | CCCCOc1cccc(C2c3c(-c4cc(C)ccc4O)n[nH]c3C(=O)N2CCOC)c1 (configuration not stated) | active: 31.6 µM
49 | Cc1sc(N(C(=O)CCc2ccccc2)c2ccc(C(=O)O)cc2)nc1-c1ccccc1 | inconclusive: 58.5 µM [inhibitor, single point]
50 | CCn1c(CNC(=O)c2cc(OC)c(OC)c(OC)c2)cc2ccccc21 | inactive
51 | Cc1cccc(N(C)S(=O)(=O)c2nnc(NC(=O)C(C)Oc3ccccc3)s2)c1 (configuration not stated) | inconclusive: 70.8 µM [inhibitor, single point]
52 | CCCCn1cc2c(c1-c1ccc(Br)cc1)c(=O)n(C)c(=O)n2C | inconclusive: 50.1 µM [inhibitor, partial curve, poor fit]
53 | CSc1ccc(C2c3c(-c4ccccc4O)n[nH]c3C(=O)N2Cc2ccncc2)cc1 (configuration not stated) | active: 39.8 µM
54 | O=C(Oc1ccc2c(c1)O/C(=C\c1ccncc1)C2=O)c1ccccc1 | active: 52.1 µM
55 | O=C(O)C(Oc1ccc2c(-c3ccccc3)cc(=O)oc2c1)c1ccccc1 (configuration not stated) | inconclusive: 58.5 µM [inhibitor, single point]
56 | CCCN(C(=O)c1ccc2c(SCC(=O)O)c3c(nc2c1)CCC3)c1cccc(C)c1 | inconclusive: 52.1 µM [inhibitor, single point]
57 | CCCCN1C(=O)c2[nH]nc(-c3ccccc3O)c2C1c1ccc(OCc2ccccc2)c(OC)c1 (configuration not stated) | inactive
58 | O=C(NC1CCCC1)C(c1ccccc1)N(C(=O)c1csnn1)c1ccccc1F (configuration not stated) | inconclusive: 16.5 µM [inhibitor, single point]
59 | Cc1ccc(S(=O)(=O)N(CC(=O)Nc2cccnc2)c2cc(Cl)ccc2C)cc1 | inconclusive: 50.1 µM [inhibitor, single point]
60 | O=C(NCCN1CCOCC1)c1cnn2c(-c3ccccc3)cc(-c3ccccc3)nc12 | inconclusive: 46.5 µM [inhibitor, partial curve]
61 | CC(OC(=O)c1ccccc1NCc1ccco1)C(=O)Nc1ncc(Cl)cc1Cl (configuration not stated) | inactive
62 | CCCOc1ccc([C@@H]2C3CN(C(=O)OCC)CC=C3C(C#N)=C(N)C2(C#N)C#N)cc1OC (some centres not stated) | inconclusive: 23.3 µM [inhibitor, partial curve]
